The campaign covered roughly 110,000 compounds. About 230 (0.21%) showed an effect of 50% or more. Some of the results follow.
Biological target: DPAP1 (Plasmodium falciparum, UniProt Q8IIJ9)
Assay: primary screen, percent inhibition; read by cleavage of a fluorogenic dipeptide substrate; higher = more effect of the substance
Parameters: species or system P. falciparum D10 trophozoite lysates; single well
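Further: 30 min substrate incubation versus DMSO and 10 µM JCP410 controls.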

Chain of DPAP1 (Q8IIJ9 whole entry, looked up): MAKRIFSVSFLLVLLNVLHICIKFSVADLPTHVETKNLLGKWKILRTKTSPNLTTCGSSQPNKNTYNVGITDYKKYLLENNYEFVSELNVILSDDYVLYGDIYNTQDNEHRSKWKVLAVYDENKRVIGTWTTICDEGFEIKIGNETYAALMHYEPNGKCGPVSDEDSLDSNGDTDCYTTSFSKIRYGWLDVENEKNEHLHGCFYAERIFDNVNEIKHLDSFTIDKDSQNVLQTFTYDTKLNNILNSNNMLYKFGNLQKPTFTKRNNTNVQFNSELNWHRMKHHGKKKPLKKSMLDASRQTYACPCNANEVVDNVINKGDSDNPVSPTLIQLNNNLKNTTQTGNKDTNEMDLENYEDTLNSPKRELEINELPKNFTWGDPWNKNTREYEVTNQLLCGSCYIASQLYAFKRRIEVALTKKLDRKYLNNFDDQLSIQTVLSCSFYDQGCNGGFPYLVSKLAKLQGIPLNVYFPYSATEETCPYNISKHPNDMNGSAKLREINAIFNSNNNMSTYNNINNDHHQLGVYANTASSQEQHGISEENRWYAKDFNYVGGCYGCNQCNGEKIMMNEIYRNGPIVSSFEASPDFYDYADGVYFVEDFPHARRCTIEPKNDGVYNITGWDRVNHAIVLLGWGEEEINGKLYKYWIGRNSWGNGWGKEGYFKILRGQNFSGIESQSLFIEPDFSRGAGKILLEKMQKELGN

| SMILES | % Inhibition @ 10 uM |
| --- | --- |
| CN(C)CCN(C)Cc1ccc(N(C)C)cc1 | 2.94% |
| O=S(=O)(c1ccc(Cl)cc1)N1CCN(Cc2ccccc2)CC1 | 4.54% |
| COc1ccc(-c2nc(N)sc2C)cc1 | 2.46% |
| CCCCc1nnc2sc(NC(=O)CCC)nn12 | -4.69% |
| CN(C)c1ccc(NC(=O)c2scc3c2CCCC3)cc1 | -5.27% |
| O=C(CN1C(=O)c2cccc3cccc(c23)C1=O)Nc1c(Cl)cccc1Cl | -3.84% |
| CCCCNC(=O)CSCc1nc(-c2ccc(C)cc2)oc1C | -1.27% |
| CCOC(=O)c1sc(NC(=O)C(CC)Sc2nnc3c(n2)[nH]c2ccccc23)nc1C (stereo not shown) | 0.408% |
| Cc1nc(C23CC4CC(CC(C4)C2)C3)c[nH]1 | -5.62% |
| NC1=NC(Cl)=NC2C1N=CN2Cc1ccccc1 (stereo not shown) | 1.67% |
| Nc1ccc(S(=O)(=O)Nc2nccc(/C=C/c3cccc(F)c3)n2)cc1 | 0.889% |
| COc1cccc2c1cc1c(=O)n(CC(=O)NC3CCN(Cc4ccccc4)CC3)nc(C)n12 | -1.7% |
| COc1ccccc1CNC1CCSC1 (stereo not shown) | 5.03% |
| COc1ccccc1NS(=O)(=O)c1ccc(Oc2ccccc2C)cc1 | -1.17% |
| CCOc1cccc(C(=O)Nc2cccc(-c3nc4ncccc4o3)c2)c1 | 8.59% |
| Nc1nc2nc(-c3ccccc3)cc(O)n2n1 | -0.13% |
| Cc1nn(-c2ccccc2)c(Cl)c1C1CC(=O)Nc2c1ccc1ccccc21 (stereo not shown) | -6.35% |
| CC(C)(C)NCc1cc(Br)ccc1OCc1cccs1 | 2.06% |
| Cn1c(SCc2nc(-c3ccc(Cl)cc3)no2)nc2ccccc21 | -2.63% |
| N#Cc1ccccc1CN1C(=O)S/C(=C/c2ccc(O)cc2)C1=O | 10.2% |
| O=C(OC1CCCCC1)C(C(=O)OC1CCCCC1)c1nc2ccccc2s1 | -0.0813% |
| OC[C@H]1O[C@@H](Nc2ccccc2)[C@@H](O)[C@@H](O)[C@@H]1O | 0.565% |
| O=C(NC(=O)c1ccc(C(F)(F)F)cc1)OCCN1C(=O)c2ccccc2C1=O | -2.63% |
| COc1ccc(OCCSCc2nnc(NC(=O)C(=O)c3c[nH]c4ccccc34)s2)cc1 | 2.11% |
| CCc1ccccc1NC(=O)CN(c1ccc(C)c(C)c1)S(C)(=O)=O | 0.189% |

| SMILES | % Inhibition @ 10 uM |
| --- | --- |
| Oc1ccc(CN2CCOCC2)cc1 | -0.603% |
| Cc1ccc(NC(=O)COc2cccc(C3C4=C(O)CCCC4=NC4=C3C(=O)CCC4)c2)cc1Cl (stereo not shown) | 4.7% |
| COc1cc(-c2noc(CCC(=O)NCc3ccco3)n2)cc(OC)c1OC | 3.62% |
| O=C(Cc1c(C(=O)O)[nH]c2ccccc12)NCCN1CCOCC1 | 2.83% |
| COCCNC(=O)c1cc2cc3ccc(C)cc3nc2s1 | 0.675% |
| Cc1ccc(S(=O)(=O)c2ccc(Cl)cc2)cc1 | -6.68% |
| CN(C(=O)Cn1c(SCc2ccccc2F)nc2ccncc21)C1CCCCC1 | 2.65% |
| COc1cccc(C2NC(=O)NC(C)=C2C(=O)Nc2ccccc2OC)c1 (stereo not shown) | -7.1% |
| O=C(CCN1C(=O)c2ccccc2C1=O)Nc1ccc(Cl)cc1 | -5.62% |
| CCC(C#CCN1CCCCC1)(CC)OC(C)=O | 5.68% |
| CCOC(=O)N1CCN(C(=O)c2sc3ncnc(N4CCN(c5ccccn5)CC4)c3c2C)CC1 | 0.685% |
| COc1cccc2c1OC13CCCC1C2/C(=C(O)\C=C\c1ccc(OC)c(OC)c1OC)C(=O)N3C (stereo not shown) | 1.16% |
| Cc1ccc2cccc(O)c2n1 | 5.01% |
| Cn1c(=O)c2c(nc(Oc3ccc4c(c3)OCO4)n2Cc2ccccc2)n(C)c1=O | -3.87% |
| CC1CCN(S(=O)(=O)N2CCC(C(=O)NCCc3ccc(Cl)cc3)CC2)CC1 | -1.34% |
| CCCC(=O)Nc1ccc(S(=O)(=O)Nc2ccc(C)c(C)c2)cc1 | 1.05% |
| NC1=NC(c2ccc(OCC(=O)O)cc2)n2c(nc3ccccc32)N1 (stereo not shown) | -3.53% |
| Cc1c(C(=O)N(Cc2cccs2)C2CCS(=O)(=O)C2)oc2ccccc12 (stereo not shown) | 0.413% |
| COC(=O)C1=C(C)NC(=O)NC1c1ccc(O)cc1 (stereo not shown) | 5.5% |
| Cc1ccc(C(C)C)c(OCC(=O)NCc2ccco2)c1 | -8.3% |
| CCc1nn(CC(=O)NCCCN(Cc2ccccc2)C(C)C)c(=O)c2cc3sccc3n12 | -1.58% |
| CCC(C)c1ccccc1OCC(=O)Nc1ccc(C)cc1C(=O)O (stereo not shown) | -1.65% |
| Cc1ccc(C(=O)NCc2ccco2)cc1S(=O)(=O)N1CCOCC1 | -6.37% |
| Cc1cccc(NC(=O)/C=C/c2ccc3c(c2)OCO3)c1 | 2.94% |
| Cc1ccsc1CN1CCN(CCOCCO)CC1 | 1.87% |

| SMILES | % Inhibition @ 10 uM |
| --- | --- |
| Cc1nn(-c2ccc(Cl)nn2)c(=O)c2ccccc12 | -11.3% |
| COc1ccc(C(=O)c2c[nH]cn2)cc1OC | 4.61% |
| Cc1sc(NC(=O)c2ccccc2F)c(CN2CCCCC2)c1C | -2.85% |
| CCOC(=O)C1=CN(Cc2ccc(OC)cc2)C=C(C(=O)OCC)C1c1ccc(C(F)(F)F)cc1 | 1.86% |
| CC(C)(C)c1[nH]nc2c1C(c1ccccc1F)C(C#N)=C(N)O2 (stereo not shown) | 1.37% |
| Cc1ccc(NS(=O)(=O)c2ccc(NC(=O)c3ccccc3C(=O)O)cc2)c(C)c1 | 4.11% |
| Cc1ccc(-c2nn(Cc3cc(=O)n4ccccc4n3)c(=O)c3c2CCCC3)cc1 | -0.946% |
| O=C1C2C3C=CC(CO)(O3)C2C(=O)N1c1cc(C(F)(F)F)ccc1Cl (stereo not shown) | 4.78% |
| CC(C(=O)Nc1ccc(Cl)cn1)N1Cc2ccccc2C1=O (stereo not shown) | 4.6% |
| CC(C)Cn1cnc2oc(-c3ccccc3)c(-c3ccccc3)c2c1=N | -1.6% |
| Oc1nc(S)nc(O)c1C(c1ccc(F)cc1)N1CCCCC1 (stereo not shown) | -3.41% |
| Cc1cccc(Cn2nc(Cc3cccnc3)c3ccccc3c2=O)c1 | 1.39% |
| C/C(=C\c1ccccc1)CN1CCCCC1CO (stereo not shown) | -2.95% |
| COc1ccc(OC)c(S(=O)(=O)c2ccc(Cl)c(Cl)c2)c1 | -3.93% |
| Clc1cccc(N2CCN(C3C4CC5CC(C4)CC3C5)CC2)c1 (stereo not shown) | 3.44% |
| CN(c1ccc(C(=O)N2CCN(Cc3ccccc3)CC2)cc1)S(C)(=O)=O | -3.03% |
| COc1ccc(S(=O)(=O)Cc2ccc(C(=O)NCCCN3CCc4ccccc4C3)o2)cc1 | 25.9% |
| CCc1cccc2c1NC(=O)/C2=C1\SC(Nc2cccc(Cl)c2)=NC1=O | -0.641% |
| CC1CCCC(C)N1CCCNC(=O)CN1C(=O)CSc2ncccc21 (stereo not shown) | -6.24% |
| O=C(O)CCCC[C@@H]1SCC2(O)NC(=O)N[C@@H]12 (stereo partly shown) | -3.52% |
| CCOC(=O)c1c(C)n(C)c2ccc(O)c(CN3CCC(C)CC3)c12 | 3.04% |
| Cc1c(C(=O)NCc2cccnc2)sc2ncn(CC(=O)N3CCCCC3C)c(=O)c12 (stereo not shown) | -2.17% |
| O=C(Cn1ncc2c3ccccc3n(Cc3ccccc3F)c2c1=O)NCc1cccnc1 | 3.4% |
| Cc1nn(C)c(C)c1CN(C)C(=O)c1cnn2c(C(F)(F)F)cc(-c3ccccc3)nc12 | -3.87% |
| O=C(CNC(=S)N(Cc1ccc(F)cc1)C1CCCCC1)N1CCCC1 | 4.47% |

| SMILES | % Inhibition @ 10 uM |
| --- | --- |
| COc1ccc(Cc2nnc(NC3CCCCC3)nc2O)cc1 | -2.04% |
| CCOC(=O)N1CCN(Cc2cccc(F)c2)CC1 | -9.93% |
| COc1ccc(C(=O)Nc2ccc(S(=O)(=O)N3CCC(C)CC3)cc2)c(OC)c1 | 13.5% |
| O=C(O)c1ccc(S(=O)(=O)c2ccc3c(c2)C(=O)N(c2nccs2)C3=O)cc1 | 3.25% |
| O=C(ON1C(=O)c2cccc3cccc(c23)C1=O)c1ccncc1 | -2.75% |
| CCCCOc1ccc(C(=O)Nc2cc3ccccc3oc2=O)cc1 | 0.997% |
| Cc1cccc(-c2nc(CS(=O)CC(=O)N(C)CCC#N)c(C)o2)c1 (stereo not shown) | 0.689% |
| Cc1ccc(Cl)cc1N1CCN(S(=O)(=O)c2ccccc2)CC1 | -3.39% |
| Cc1ccc(-c2ccc(=O)n(CCC(=O)NC3CCCC(C)C3C)n2)cc1 (stereo not shown) | -0.0542% |
| CCOc1ccccc1C(=O)Nc1ccc(C)cn1 | 1.15% |
| O=C(Nc1ccc(-c2nc3ccccc3s2)cc1)c1ccc(S(=O)(=O)N2CCCCC2)cc1 | -3.93% |
| O=C(CSc1ncccc1C(=O)O)NCCC1=CCCCC1 | 4.36% |
| O=C(Cn1cc(/C=C2\NC(=O)N(Cc3ccccc3)C2=O)c2ccccc21)N1CCOCC1 | 0.408% |
| Cc1cccc(CCNC(=O)CN(C)S(=O)(=O)c2ccc3nc(C)sc3c2)c1 | 5.65% |
| COc1ccc(/C=C2\CC/C(=C\c3ccc(OC)c(OC)c3)C2=O)cc1OC | -2.12% |
| OCC1CCCCN1Cc1ccc(Cl)cc1Cl (stereo not shown) | -1.5% |
| COc1ccc(OC)c(N2Cc3ccc(OC)c(OC)c3C2=O)c1 | -5.73% |
| CC(=O)Nc1ccc(CN2CCc3ccccc3C2)cc1 | -1.07% |
| CC(=O)N1CCN(Cc2c(F)cccc2Cl)CC1 | -3.15% |
| O=C1C2CCCCC2C(=O)N1CNc1ccc(F)cc1 (stereo not shown) | -6.18% |
| CC(=O)c1cc(-c2ccccc2)n(CC(=O)N2CCC(C)CC2)c1C | 3.07% |
| CN(CC(=O)O)C(=O)c1cn(-c2ccccc2)nc1-c1ccccc1 | -2.77% |
| CCC(=O)N1c2ccccc2N=C2CC(C)(C)CC(O)=C2C1c1cc(OC)ccc1OC (stereo not shown) | -2.8% |
| CCc1ccc(C2C3=C(O)CCCC3=NC(C)=C2C(=O)Nc2ccccc2OC)cc1 (stereo not shown) | 0.726% |
| COc1ccc(CC(C)(NC(=O)OCc2ccccc2)C(=O)NCC#N)cc1OC (stereo not shown) | 0.079% |

— PMC6919601, “Identification of Plasmodium dipeptidyl aminopeptidase allosteric inhibitors by high throughput screening” (PLoS ONE, 2019)
